# Experimental data published in the supplement of paper PMC8728848.
# The list shows a part of the results.
# B1: SP16663B-bot-321-25-321 (Bacteroides ovatus) (protein)
# chain: DDDDEVTMNSKFYLSTKVFPVDSYEASLSVILKDNSVVVNELQPNYRFVACATERLSKDVKITADSDDNLVSAYNKANDTEYNILPAENYSFTNKTVTIENGESVSGDSIKIELLNVGSLTTEGGYLLPVTISSIEGNNLDALSSNRGVVYLKIQNIHVNVESGQPAEGTLIADRSGWTVKVAPTTRGDAKNLIDGTNSDVARDGGAEYWLTVDIGKVQTLTGIRNKCYASSYSPTAVEVFTSSDGAKWKSIGAVTISKSGTQYIKFSKAVETRYLKYYVKQGPNTVSLTEFDLYAK
# Legend:
# Assay in all cases: glycan array binding signal (z-score within array); higher = stronger binding
# Settings in all cases: glycan notation: IUPAC condensed, linker removed
# [1] = target: Neu5Ac(a2-6)Gal(b1-4)GlcNAc(b1-3)Gal(b1-4)GlcNAc(b1-3)GalNAc
# Summary of the method: (§1)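 Glycan array data came from 3228 arrays in the Consortium for Functional Glycomics database, and only arrays with an available protein sequence were kept. Glycan names were put into IUPAC-condensed notation, and columns mapping to the same glycan were averaged. The binding signal is a within-array Z-score, averaged across arrays of one protein sequence run at different concentrations or buffers and across linkers. A negative Z-score can be read as non-binding.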
# [2] = target: Neu5Ac(a2-6)Gal(b1-4)GlcNAc(b1-3)Gal(b1-4)GlcNAc(b1-3)[Neu5Ac(a2-6)Gal(b1-4)GlcNAc(b1-3)Gal(b1-4)GlcNAc(b1-6)]GalNAc
# Summary of the method: as §1
# [3] = target: Neu5Ac(a2-6)Gal(b1-4)GlcNAc(b1-3)Gal(b1-4)GlcNAc(b1-6)[Gal(b1-3)]GalNAc
# Summary of the method: as §1
# [4] = target: Neu5Ac(a2-6)Gal(b1-4)GlcNAc(b1-3)Gal(b1-4)[Fuc(a1-3)]GlcNAc(b1-3)Gal(b1-4)[Fuc(a1-3)]GlcNAc
# Summary of the method: as §1
# [5] = target: Neu5Ac(a2-6)Gal(b1-4)GlcNAc(b1-3)GalNAc
# Summary of the method: as §1
# [6] = target: Neu5Ac(a2-6)Gal(b1-4)GlcNAc(b1-3)[Neu5Ac(a2-6)Gal(b1-4)GlcNAc(b1-6)]GalNAc
# Summary of the method: as §1
# [7] = target: Neu5Ac(a2-6)Gal(b1-4)GlcNAc(b1-6)GalNAc
# Summary of the method: as §1
# [8] = target: Neu5Ac(a2-6)Gal(b1-4)GlcNAc(b1-6)[Gal(b1-3)GlcNAc(b1-3)]Gal(b1-4)Glc
# Summary of the method: as §1
# [9] = target: Neu5Ac(a2-6)Gal(b1-4)GlcNAc(b1-6)[Gal(b1-3)]GalNAc
# Summary of the method: as §1
# [10] = target: Neu5Ac(a2-6)Gal(b1-4)GlcNAc6S
# Summary of the method: as §1
# Neu5Ac(a2-6)GalNAc = target: Neu5Ac(a2-6)GalNAc
# Summary of the method: as §1
# [11] = target: Neu5Ac(a2-6)GalNAc(b1-4)GlcNAc
# Summary of the method: as §1
# [12] = target: Neu5Ac(a2-6)GalNAc(b1-4)GlcNAc6S
# Summary of the method: as §1
# [13] = target: Neu5Ac(a2-6)GlcNAc(b1-4)GlcNAc
# Summary of the method: as §1
# [14] = target: Neu5Ac(a2-6)GlcNAc(b1-4)GlcNAc(b1-4)GlcNAc
# Summary of the method: as §1
# Neu5Ac(a2-8)Neu5Ac = target: Neu5Ac(a2-8)Neu5Ac
# Summary of the method: as §1
# [15] = target: Neu5Ac(a2-8)Neu5Ac(a2-3)Gal(b1-3)GalNAc(b1-4)[Neu5Ac(a2-3)]Gal(b1-4)Glc
# Summary of the method: as §1
# [16] = target: Neu5Ac(a2-8)Neu5Ac(a2-3)Gal(b1-3)GalNAc(b1-4)[Neu5Ac(a2-8)Neu5Ac(a2-3)]Gal(b1-4)Glc
# Summary of the method: as §1
# [17] = target: Neu5Ac(a2-8)Neu5Ac(a2-3)Gal(b1-4)Glc
# Summary of the method: as §1
# [18] = target: Neu5Ac(a2-8)Neu5Ac(a2-3)Gal(b1-4)GlcNAc
# Summary of the method: as §1
# [19] = target: Neu5Ac(a2-8)Neu5Ac(a2-3)[Gal(b1-3)GalNAc(b1-4)]Gal(b1-4)Glc
# Summary of the method: as §1
# [20] = target: Neu5Ac(a2-8)Neu5Ac(a2-3)[GalNAc(b1-4)]Gal(b1-4)Glc
# Summary of the method: as §1
# [21] = target: Neu5Ac(a2-8)Neu5Ac(a2-8)Neu5Ac
# Summary of the method: as §1
# [22] = target: Neu5Ac(a2-8)Neu5Ac(a2-8)Neu5Ac(a2-3)Gal(b1-4)Glc
# Summary of the method: as §1
# [23] = target: Neu5Ac(a2-8)Neu5Ac(a2-8)Neu5Ac(a2-3)[Gal(b1-3)GalNAc(b1-4)]Gal(b1-4)Glc
# Summary of the method: as §1
# [24] = target: Neu5Ac(a2-8)Neu5Ac(a2-8)Neu5Ac(a2-3)[GalNAc(b1-4)]Gal(b1-4)Glc
# Summary of the method: as §1
# [25] = target: Neu5Ac(a2-8)Neu5Ac(a2-8)Neu5Ac(a2-8)Neu5Ac(a2-3)[GalNAc(b1-4)]Gal(b1-4)Glc
# Summary of the method: as §1
# [26] = target: Neu5Ac(a2-8)Neu5Gc(a2-3)Gal(b1-4)GlcNAc
# Summary of the method: as §1
# [27] = target: Neu5Ac(b2-6)Gal(b1-4)GlcNAc
# Summary of the method: as §1
# Neu5Ac(b2-6)GalNAc = target: Neu5Ac(b2-6)GalNAc
# Summary of the method: as §1
# [28] = target: Neu5Ac9Ac(a2-3)Gal(b1-3)GlcNAc
# Summary of the method: as §1
# [29] = target: Neu5Ac9Ac(a2-3)Gal(b1-4)GlcNAc
# Summary of the method: as §1
# [30] = target: Neu5Ac9Ac(a2-6)Gal(b1-4)GlcNAc
# Summary of the method: as §1
# [31] = target: Neu5Gc(a2-3)Gal(b1-3)GlcNAc
# Summary of the method: as §1
# [32] = target: Neu5Gc(a2-3)Gal(b1-3)[Fuc(a1-4)]GlcNAc
# Summary of the method: as §1
# Neu5Gc(a2-3)Gal(b1-4)Glc = target: Neu5Gc(a2-3)Gal(b1-4)Glc
# Summary of the method: as §1
# [33] = target: Neu5Gc(a2-3)Gal(b1-4)GlcNAc
# Summary of the method: as §1
# [34] = target: Neu5Gc(a2-3)Gal(b1-4)GlcNAc(b1-3)Gal(b1-4)GlcNAc(b1-2)Man(a1-3)[Neu5Gc(a2-3)Gal(b1-4)GlcNAc(b1-3)Gal(b1-4)GlcNAc(b1-2)Man(a1-6)]Man(b1-4)GlcNAc(b1-4)GlcNAc
# Summary of the method: as §1
# [35] = target: Neu5Gc(a2-3)Gal(b1-4)[Fuc(a1-3)]GlcNAc
# Summary of the method: as §1
# [36] = target: Neu5Gc(a2-6)Gal(b1-4)GlcNAc
# Summary of the method: as §1
# Neu5Gc(a2-6)GalNAc = target: Neu5Gc(a2-6)GalNAc
# Summary of the method: as §1
# [37] = target: Neu5Gc(a2-8)Neu5Ac(a2-3)Gal(b1-4)GlcNAc
# Summary of the method: as §1
# [38] = target: Neu5Gc(a2-8)Neu5Gc(a2-3)Gal(b1-4)GlcNAc
# Summary of the method: as §1
# [39] = target: Neu5Gc(a2-8)Neu5Gc(a2-3)Gal(b1-4)GlcNAc(b1-3)Gal(b1-4)GlcNAc
# Summary of the method: as §1
# [40] = target: Neu5Gc(a2-8)Neu5Gc(a2-6)Gal(b1-4)GlcNAc
# Summary of the method: as §1
# [41] = target: Neu5Gc(b2-6)Gal(b1-4)GlcNAc
# Summary of the method: as §1
binder,measurement,setting,value
B1,glycan array binding signal (z-score),[1],-0.34
same,glycan array binding signal (z-score),[2],-0.22
same,glycan array binding signal (z-score),[3],-0.259
same,glycan array binding signal (z-score),[4],0.239
same,glycan array binding signal (z-score),[5],0.351
same,glycan array binding signal (z-score),[6],-0.463
same,glycan array binding signal (z-score),[7],0.04
same,glycan array binding signal (z-score),[8],-0.409
same,glycan array binding signal (z-score),[9],0.298
same,glycan array binding signal (z-score),[10],-0.539
same,glycan array binding signal (z-score),Neu5Ac(a2-6)GalNAc,-0.191
same,glycan array binding signal (z-score),[11],-0.786
same,glycan array binding signal (z-score),[12],-0.458
same,glycan array binding signal (z-score),[13],-0.21
same,glycan array binding signal (z-score),[14],-0.642
same,glycan array binding signal (z-score),Neu5Ac(a2-8)Neu5Ac,0.1
same,glycan array binding signal (z-score),[15],-0.244
same,glycan array binding signal (z-score),[16],0.929
same,glycan array binding signal (z-score),[17],0.316
same,glycan array binding signal (z-score),[18],-0.054
same,glycan array binding signal (z-score),[19],0.154
same,glycan array binding signal (z-score),[20],0.071
same,glycan array binding signal (z-score),[21],0.216
same,glycan array binding signal (z-score),[22],0.516
same,glycan array binding signal (z-score),[23],-0.556
same,glycan array binding signal (z-score),[24],-0.535
same,glycan array binding signal (z-score),[25],-0.261
same,glycan array binding signal (z-score),[26],0.003
same,glycan array binding signal (z-score),[27],-0.188
same,glycan array binding signal (z-score),Neu5Ac(b2-6)GalNAc,-0.878
same,glycan array binding signal (z-score),[28],0.033
same,glycan array binding signal (z-score),[29],0.4
same,glycan array binding signal (z-score),[30],-0.161
same,glycan array binding signal (z-score),[31],-0.305
same,glycan array binding signal (z-score),[32],-0.17
same,glycan array binding signal (z-score),Neu5Gc(a2-3)Gal(b1-4)Glc,-0.241
same,glycan array binding signal (z-score),[33],-0.46
same,glycan array binding signal (z-score),[34],-0.142
same,glycan array binding signal (z-score),[35],-0.612
same,glycan array binding signal (z-score),[36],0.696
same,glycan array binding signal (z-score),Neu5Gc(a2-6)GalNAc,0.136
same,glycan array binding signal (z-score),[37],-0.244
same,glycan array binding signal (z-score),[38],0.233
same,glycan array binding signal (z-score),[39],-0.671
same,glycan array binding signal (z-score),[40],-0.34
same,glycan array binding signal (z-score),[41],0.159
